Data from article PMC12820563.
This is one part of the list. The list includes weakly bound sequences.

Target: T1, MBP-FoxP3dN (UniProt Q99JB6)
T1 sequence: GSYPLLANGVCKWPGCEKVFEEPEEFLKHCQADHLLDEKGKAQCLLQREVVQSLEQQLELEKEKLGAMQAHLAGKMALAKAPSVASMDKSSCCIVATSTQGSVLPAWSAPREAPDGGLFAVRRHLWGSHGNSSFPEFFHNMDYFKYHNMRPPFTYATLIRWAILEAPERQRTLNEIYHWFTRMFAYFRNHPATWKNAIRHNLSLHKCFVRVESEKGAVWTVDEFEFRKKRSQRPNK
Test: PD-seq (MBP pull-down with sequencing)
Settings: 20 mM Tris-HCl pH 7.5, 100 mM NaCl, 1.5 mM MgCl2, 0.4 uM protein, 0.1 uM dsDNA library, 30 min, room temperature, amylose pull-down; high values mean tight binding; double strand, one strand shown

| Sequence | binding signal (RPM ratio (pull-down/input)) |
| --- | --- |
| GATGATTGTTCTCCCAGCTGATGAATTCATCCGCTCGAGTAAACAAATTTTCCTAATCTTTCTGTTCAAGCGCCATCTAC | 0.235 |
| GATGATTGTTCTCCCAGCTGATGAATTAATAAGCTCGAGTAAACAAATTTTCCTAATCTTTCTGTTCAAGCGCCATCTAC | 0.331 |
| GATGATTGTTCTCCCAGCTGATGAATTTAGGTGCTCGAGTAAACAAATTTTCCTAATCTTTCTGTTCAAGCGCCATCTAC | 0.661 |
| GATGATTGTTCTCCCAGCTGATGAATTAAGCAGATCGAGTAAACAAATTTTCCTAATCTTTCTGTTCAAGCGCCATCTAC | 0.319 |
| GATGATTGTTCTCCCAGCTGATGAATTACAAGCCTCGAGTAAACAAATTTTCCTAATCTTTCTGTTCAAGCGCCATCTAC | 0.626 |
| GATGATTGTTCTCCCAGCTGATGAATTTCGATAGTCGAGTAAACAAATTTTCCTAATCTTTCTGTTCAAGCGCCATCTAC | 0.744 |
| GATGATTGTTCTCCCAGCTGATGAATTGCGCACTTCGAGTAAACAAATTTTCCTAATCTTTCTGTTCAAGCGCCATCTAC | 1.75 |
| GATGATTGTTCTCCCAGCTGATGAATTACACGCATCGAGTAAACAAATTTTCCTAATCTTTCTGTTCAAGCGCCATCTAC | 1.28 |
| GATGATTGTTCTCCCAGCTGATGAATTGATTAGATCGAGTAAACAAATTTTCCTAATCTTTCTGTTCAAGCGCCATCTAC | 0.518 |
| GATGATTGTTCTCCCAGCTGATGAATTGAGGAATTCGAGTAAACAAATTTTCCTAATCTTTCTGTTCAAGCGCCATCTAC | 0.607 |
| GATGATTGTTCTCCCAGCTGATGAATTCACGCTGTCGAGTAAACAAATTTTCCTAATCTTTCTGTTCAAGCGCCATCTAC | 0.614 |
| GATGATTGTTCTCCCAGCTGATGAATTACATTAGTCGAGTAAACAAATTTTCCTAATCTTTCTGTTCAAGCGCCATCTAC | 0.7 |
| GATGATTGTTCTCCCAGCTGATGAATTTGCAGACTCGAGTAAACAAATTTTCCTAATCTTTCTGTTCAAGCGCCATCTAC | 0.432 |
| GATGATTGTTCTCCCAGCTGATGAATTAGTTGGATCGAGTAAACAAATTTTCCTAATCTTTCTGTTCAAGCGCCATCTAC | 1.06 |
| GATGATTGTTCTCCCAGCTGATGAATTTTGTACATCGAGTAAACAAATTTTCCTAATCTTTCTGTTCAAGCGCCATCTAC | 1.47 |
| GATGATTGTTCTCCCAGCTGATGAATTTTTGGCATCGAGTAAACAAATTTTCCTAATCTTTCTGTTCAAGCGCCATCTAC | 0.785 |

| Sequence | binding signal (RPM ratio (pull-down/input)) |
| --- | --- |
| GATGATTGTTCTCCCAGCTGATGAATTCAAGCTCTCGAGTAAACAAATTTTCCTAATCTTTCTGTTCAAGCGCCATCTAC | 0.513 |
| GATGATTGTTCTCCCAGCTGATGAATTTCATTGGTCGAGTAAACAAATTTTCCTAATCTTTCTGTTCAAGCGCCATCTAC | 1.11 |
| GATGATTGTTCTCCCAGCTGATGAATTACTATGGTCGAGTAAACAAATTTTCCTAATCTTTCTGTTCAAGCGCCATCTAC | 0.379 |
| GATGATTGTTCTCCCAGCTGATGAATTTGAGGCGTCGAGTAAACAAATTTTCCTAATCTTTCTGTTCAAGCGCCATCTAC | 0.796 |
| GATGATTGTTCTCCCAGCTGATGAATTCAGTCATTCGAGTAAACAAATTTTCCTAATCTTTCTGTTCAAGCGCCATCTAC | 1.04 |
| GATGATTGTTCTCCCAGCTGATGAATTGCGGGGATCGAGTAAACAAATTTTCCTAATCTTTCTGTTCAAGCGCCATCTAC | 0.651 |
| GATGATTGTTCTCCCAGCTGATGAATTTTGTTCTTCGAGTAAACAAATTTTCCTAATCTTTCTGTTCAAGCGCCATCTAC | 1.21 |
| GATGATTGTTCTCCCAGCTGATGAATTTATAATCTCGAGTAAACAAATTTTCCTAATCTTTCTGTTCAAGCGCCATCTAC | 0.978 |
| GATGATTGTTCTCCCAGCTGATGAATTGACGGGCTCGAGTAAACAAATTTTCCTAATCTTTCTGTTCAAGCGCCATCTAC | 0.29 |
| GATGATTGTTCTCCCAGCTGATGAATTGCGACAGTCGAGTAAACAAATTTTCCTAATCTTTCTGTTCAAGCGCCATCTAC | 0.853 |
| GATGATTGTTCTCCCAGCTGATGAATTGGACTTATCGAGTAAACAAATTTTCCTAATCTTTCTGTTCAAGCGCCATCTAC | 0.59 |
| GATGATTGTTCTCCCAGCTGATGAATTACCTCCTTCGAGTAAACAAATTTTCCTAATCTTTCTGTTCAAGCGCCATCTAC | 0.278 |
| GATGATTGTTCTCCCAGCTGATGAATTTCAGACGTCGAGTAAACAAATTTTCCTAATCTTTCTGTTCAAGCGCCATCTAC | 0.249 |
| GATGATTGTTCTCCCAGCTGATGAATTGGGCGTTTCGAGTAAACAAATTTTCCTAATCTTTCTGTTCAAGCGCCATCTAC | 2.47 |
| GATGATTGTTCTCCCAGCTGATGAATTGCAACCATCGAGTAAACAAATTTTCCTAATCTTTCTGTTCAAGCGCCATCTAC | 4.48 |
| GATGATTGTTCTCCCAGCTGATGAATTCCGCCAATCGAGTAAACAAATTTTCCTAATCTTTCTGTTCAAGCGCCATCTAC | 0.896 |
